From PubChem BioAssay AID360 (National Center for Advancing Translational Sciences (NCATS), 2006)
The whole screen tested about 48,000 compounds, of which about 550 (1.1%) were called active. Not shown: some 4% with an inconclusive outcome. Rule as the data show it: active = potency below about 15 µM; inconclusive = mostly about 16 µM to 33 µM; inactive = weaker than that. The list shows a part of the results.

target: Lysosomal acid glucosylceramidase (Homo sapiens) (UniProt P04062); experiment: Glucocerebrosidase; conditions: purified enzyme, resorufin glucoside fluorescence (screen aimed at inhibitors), 20 min;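 also: the screen sought inhibitors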
In short: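 Wild-type enzyme at 0.2 nM final in 50mM citric acid/KH2PO4, 10mM sodium taurocholate, 0.01% tween-20, pH 5.9, with resorufin beta-D-glucopyranoside at 30 uM final. Compounds titrated, 20 min at RT, red fluorescence read; AC50 from titration.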
Potency is read from the fitted curve at half-maximal effect.

Sequence of UniProt P04062 (P04062 whole entry, looked up): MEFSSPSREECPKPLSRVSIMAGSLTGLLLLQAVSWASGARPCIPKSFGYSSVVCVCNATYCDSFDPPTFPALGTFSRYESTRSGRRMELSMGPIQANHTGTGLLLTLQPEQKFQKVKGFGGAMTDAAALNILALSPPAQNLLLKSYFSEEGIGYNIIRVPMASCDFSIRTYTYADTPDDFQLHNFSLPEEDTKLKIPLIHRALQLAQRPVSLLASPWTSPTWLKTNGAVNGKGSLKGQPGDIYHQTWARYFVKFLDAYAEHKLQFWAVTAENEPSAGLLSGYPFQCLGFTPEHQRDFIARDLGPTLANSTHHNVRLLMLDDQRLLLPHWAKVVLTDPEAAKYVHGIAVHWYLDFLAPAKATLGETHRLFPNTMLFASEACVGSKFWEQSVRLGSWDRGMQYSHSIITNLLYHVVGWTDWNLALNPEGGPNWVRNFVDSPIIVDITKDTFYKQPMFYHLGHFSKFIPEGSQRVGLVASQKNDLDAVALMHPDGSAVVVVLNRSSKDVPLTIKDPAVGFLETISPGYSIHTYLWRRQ

SMILES	Potency
CC1CN(C(=O)c2cn3ccccc3n2)CC(C)O1 (configuration not stated)	inactive: > 76.9 µM
O=S(=O)(Nc1cccc(C(F)(F)F)c1)c1cccnc1	inactive: > 76.9 µM
O=C(c1ccccn1)N(Cc1cc2ccccc2[nH]c1=O)C1CCCCC1	inactive: > 76.9 µM
Cc1ccc2cc(C)c(SCC#N)nc2c1	inactive: > 76.9 µM
COc1cc(-c2c(C#N)c(N)nc3c2CCCC3)cc(OC)c1OC	inactive: > 76.9 µM
CN(C)CCCNc1c2c(c(C#N)c3nc4ccccc4n13)CCC2	inactive: > 76.9 µM
Cc1cc(NC(=O)CCCC(=O)N(CC(=O)NCCc2ccccc2)Cc2ccc(F)cc2)no1	inactive: > 76.9 µM
CC(=O)Cc1nsc(NC(=O)c2ccccc2)n1	inactive: > 76.9 µM
NC(=O)C(Cc1ccccc1)NS(=O)(=O)c1ccc(N2CCCC2=O)cc1 (configuration not stated)	inactive: > 76.9 µM
Cc1cc(C)n2c(SCc3c(C)noc3C)nnc2n1	inactive: > 76.9 µM
CCN1C(=O)C(O)(CC(=O)c2cc(C)ccc2C)c2ccccc21 (configuration not stated)	inactive: > 76.9 µM
CC1(C)CC(C(=O)Nc2nccs2)CCO1 (configuration not stated)	inactive: > 76.9 µM
COC(=O)C(C)NS(=O)(=O)c1ccc(NC(C)=O)cc1 (configuration not stated)	inactive: > 76.9 µM
Cn1c(=O)[nH]c(=O)c2c1nc(CN1CCOCC1)n2CCc1ccccc1	inactive: > 76.9 µM
CC(c1ccco1)N(C(=O)C12CC3CC(CC(C3)C1)C2)c1ccccn1 (configuration not stated)	inactive: > 76.9 µM
COc1cccc(-c2cc(C(=O)Nc3c(C)nn(Cc4ccccc4C)c3C)no2)c1	inactive: > 76.9 µM
CCOC(=O)N1CCN(Cc2nc3c(c(=O)n(C)c(=O)n3C)n2Cc2cccc3ccccc23)CC1	inactive: > 76.9 µM
Cc1cc(C(F)(F)F)c2c(N)c(C(=O)Nc3cc(C)on3)sc2n1	inactive: > 76.9 µM
COc1ccc(CNc2nc3nc(C)cc(C)n3n2)cc1OC	inactive: > 76.9 µM
CCOC(=O)c1c(C)[nH]c(C(=O)CN2C(=O)NC(C)(c3ccc(C)cc3)C2=O)c1C (configuration not stated)	inactive: > 76.9 µM
CN(CC(=O)NCCCN1CCOCC1)S(=O)(=O)c1ccc(Br)cc1	inactive: > 76.9 µM
Cc1cccc(NC(=O)N2CCC(c3nc4ccccc4o3)CC2)c1	inactive: > 76.9 µM
c1cn(CCCNC2=NCCCCC2)cn1	inactive: > 76.9 µM

SMILES	Potency
CCOc1cccc(-c2nnc3sc(COc4ccc(C)cc4)nn23)c1	inactive: > 76.9 µM
O=C(c1ccccc1)N1CCN(S(=O)(=O)N2CCCCC2)CC1	inactive: > 76.9 µM
O=C(CSc1n[nH]c(-c2cccs2)n1)NCc1cccs1	inactive: > 76.9 µM
c1ccc(C2=Nn3c(nnc3-c3cccnc3)SC2)cc1	inactive: > 76.9 µM
CC(=O)c1nc(N2C(=O)C3CC=C(C)CC3C2=O)sc1C (configuration not stated)	inactive: > 76.9 µM
Nc1nnc(SCc2ccc3c(c2)OCO3)s1	inactive: > 76.9 µM
COc1ccc(Cl)cc1C(=O)Nc1ccccc1N1CCN(C(=O)C(C)C)CC1	inactive: > 76.9 µM
COc1ccc(CCN2C(=O)CC(N3CCN(S(=O)(=O)c4ccccc4)CC3)C2=O)cc1 (configuration not stated)	inactive: > 76.9 µM
Cn1c(=O)oc2cc(S(=O)(=O)N3CCN(c4ccccc4)CC3)ccc21	inactive: > 76.9 µM
O=C(O)c1ccc(NC(=O)c2cccs2)cc1	inactive: > 76.9 µM
COc1ccc(-c2nc(N3CCCC3)nc3nn4c(C)cc(C)nc4c23)cc1	inactive: > 76.9 µM
CCOC(=O)N1CCC(NC(=O)c2cc(C(=O)Nc3ccc(OCC)cc3)ccc2CO)CC1	inactive: > 76.9 µM
O=C(CSc1ncn(-c2ccccc2)n1)Nc1ccc(Br)cn1	inactive: > 76.9 µM
CC1CCCCN1C(=O)c1cc(F)c(F)cc1Cl (configuration not stated)	inactive: > 76.9 µM
Cc1nc(NC(CC(C)C)C(=O)O)c2nc(C)oc2n1 (configuration not stated)	inactive: > 76.9 µM
COc1ccc(C(=O)N(CCN2CCOCC2)CC(=O)NC2CCCC2)cc1OC	inactive: > 76.9 µM
O=S(=O)(NCc1cn2ccsc2n1)c1cccs1	inactive: > 76.9 µM
O=C(NCc1ccccc1)c1c(F)c(F)c(F)c(F)c1F	inactive: > 76.9 µM
CC1CCCCN1C(=O)Nc1cccc(Cl)c1 (configuration not stated)	inactive: > 76.9 µM
[O-][n+]1onc2c1CCC1N(O)C(c3ccccc3)CC21O (configuration not stated)	inactive: > 76.9 µM
COc1cccc(NC(=O)Cn2c(=O)n(CCCC(=O)NCc3ccco3)c(=O)c3ccccc32)c1	inactive: > 76.9 µM
CC1CC(C)CN(CCCNC(=O)c2cn(C)c3ccc(S(=O)(=O)N4CCCC4)cc3c2=O)C1 (configuration not stated)	inactive: > 76.9 µM
O=C(Nc1ccc(F)cc1)N(CCCN1CCOCC1)Cc1cc2cc3c(cc2[nH]c1=O)OCCO3	inactive: > 76.9 µM

SMILES	Potency
COCCNC(=O)c1cc(-c2ccc3c(c2)OCO3)on1	inactive: > 76.9 µM
COc1ccc(S(=O)(=O)NCC(c2cccnc2)N2CCN(c3ccccc3)CC2)cc1C (configuration not stated)	inactive
Cc1ccccc1NC(=O)C(C#N)Cc1cccnc1 (configuration not stated)	inactive: > 76.9 µM
Cc1ccc(-n2c3c(cc(C(=O)O)c2=O)C(=O)CC(C)(C)C3)cc1	inactive: > 76.9 µM
CCCC(c1nnnn1C1CCCC1)N1CCN(C(=O)c2ccco2)CC1 (configuration not stated)	inactive: > 76.9 µM
COC(=O)c1c(NC(=O)c2ccco2)sc(C)c1C	inactive
O=C(CCN1C(=O)c2cccnc2C1=O)NC1CCCCCC1	inactive: > 76.9 µM
Nc1cc(-c2ccco2)no1	inactive: > 76.9 µM
O=C1CCc2cc(S(=O)(=O)NCCC(=O)NC3CCN(Cc4ccccc4)CC3)ccc2N1	inactive: > 76.9 µM
Cc1noc(COc2ccccc2OCC(N)=O)c1Cl	inactive: > 76.9 µM
COc1ccc(-c2nc(CS(=O)CC(=O)NCCCN3CCCC3)c(C)o2)cc1OC (configuration not stated)	inactive: > 76.9 µM
COc1cccc2cc(-c3cn4cccc(C)c4n3)c(=O)oc12	inactive: > 76.9 µM
O=C(O)c1ccc2c(c1)ncn2C1CCCCCC1	inactive: > 76.9 µM
CCn1c(SCC(=O)Nc2nnc(C)s2)nnc1-c1ccncc1	inactive: > 76.9 µM
COc1ccc(C(=O)CSc2nnc(-c3cccnc3)n2Cc2ccco2)cc1	inactive: > 76.9 µM
CS(=O)(=O)Nc1nnc(Cc2ccccc2)s1	inactive: > 76.9 µM
O=C1C2C3C=CC([C@@H]2C(=O)N1c1nccs1)C31CC1 (some centres not stated)	inactive: > 76.9 µM
COc1nc(C#N)nc(N(C)C)n1	inactive: > 76.9 µM
COc1ccc(C2c3c(-c4ccccc4O)n[nH]c3C(=O)N2CCc2ccc(OC)c(OC)c2)cc1 (configuration not stated)	inactive: > 76.9 µM
Nc1nnc(SCC(=O)N2CCc3ccccc32)n1-c1ccccc1	inactive: > 76.9 µM
O=C(COc1cccc2cccnc12)N1CCc2ccccc2C1	inactive: > 76.9 µM
Cc1ccc2nsnc2c1S(=O)(=O)N(Cc1ccco1)Cc1cc2cccc(C)c2[nH]c1=O	inactive: > 76.9 µM
CC(C(=O)Nc1ccccc1C(=O)N1CCCC1)n1nnc2ccccc21 (configuration not stated)	inactive: > 76.9 µM

SMILES	Potency
Cc1ccc(/C(COc2ccccc2O)=N\O)cc1	inactive: > 76.9 µM
CCn1c(COc2ccc(Cl)cc2)nnc1SCC(=O)Nc1ccc2c(c1)OCO2	inactive: > 76.9 µM
CSc1cc(C)nc(NC(C)=O)n1	inactive: > 76.9 µM
CCCc1[nH]nc2c1C(c1ccccc1OCC)C(C#N)=C(N)O2 (configuration not stated)	inactive: > 76.9 µM
COc1ccc(CCNC(=O)CCNS(=O)(=O)c2cccc3nsnc23)cc1OC	inactive: > 76.9 µM
CCOC(=O)c1c(-c2ccc(OC)cc2)nc2nonc2c1N	inactive: > 76.9 µM
CCOc1ccc(C(c2nnnn2Cc2ccccc2)N2CCN(C(=O)c3ccco3)CC2)cc1 (configuration not stated)	inactive: > 76.9 µM
O=C(NCc1cccnc1)c1noc2c1CCCCC2	inactive: > 76.9 µM
Cc1cc(S(=O)(=O)NCc2cccnc2)ccc1-n1cnnn1	inactive: > 76.9 µM
Cc1nnc2n(C3CCCCC3)c(=O)c3c4c(sc3n12)CCC4	inactive: > 76.9 µM
COc1ccc(C2CC(C(F)(F)F)n3nc(CO)c(Cl)c3N2)cc1OC (configuration not stated)	active: 5.86 µM
CSc1nsc(SC)c1NC(=O)OC1CCCCC1	inactive: > 76.9 µM
O=CN1CCN(C(C(=O)NC2CCCC2)c2ccc(Cl)cc2)CC1 (configuration not stated)	inactive: > 76.9 µM
O=C(Cn1nc(C(F)(F)F)c2c1CCC2)NC1CCCCC1	inactive: > 76.9 µM
Cc1ccc(S(=O)(=O)N2CCC(C(=O)Nc3nnc(COc4ccccc4)s3)CC2)cc1	inactive: > 76.9 µM
Cn1c(=O)cc(SCC(=O)N2CCCC2)c2ccccc21	inactive: > 76.9 µM
O=C(O)c1ccc(CN2CCCCC2)o1	inactive: > 76.9 µM
c1ccc(CSc2nnc(Cc3ccccn3)o2)cc1	inactive: > 76.9 µM
CC(=O)N1CCCc2cc(S(=O)(=O)N(C)Cc3ccccc3)ccc21	inactive: > 76.9 µM
Cc1ccc2c(CC(=O)Nc3sccc3C(N)=O)coc2c1	inactive: > 76.9 µM
COC(=O)c1[nH]c2ccc(C)cc2c1NS(=O)(=O)c1ccc(F)cc1	inactive: > 76.9 µM
CC(=O)N1c2c(cc(Br)cc2S(=O)(=O)N2CCOCC2)CC1C (configuration not stated)	inactive: > 76.9 µM
O=C1CC(N2CCC(c3nc4ccccc4[nH]3)CC2)C(=O)N1Cc1ccccc1 (configuration not stated)	inactive: > 76.9 µM
